Consider 34 variants from the RNAGym collection of RNA variant scans (doi:10.1093/nar/gkz1192).

To fix the notation:
B1: CPEB3 Ribozyme (parent)
chain: UAACAGGGGGCCACAGCAGAAGCGUUCACGUCGCAGCCCCUGUCAGAUUCUGGUGAAUCUGCGAAUUCUGCUGUAUAUCUC

Read counts are not given, so values of variants with three or more changes are uncertain.

Variants of B1 are the subject of the data set. The experiment in a line: self-cleavage, relative activity (ratio to wild type); higher = more cleavage; in vitro, sequencing. The method, boiled down: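 Libraries of CPEB3 self-cleaving ribozyme mutants came from rounds of error-prone PCR and carried barcodes, which DNA sequencing matched to variants. In vitro transcription used T7 RNA polymerase at 37°C for 5 hours, with a further 15 min in DNase I before EDTA stopped the reaction; the ribozymes cleaved during both steps. The RNA was reverse transcribed with template switching and sequenced on Illumina. Relative activity is the cleaved/total read fraction of a variant divided by that of the unmutated ribozyme, averaged over three batches with at least 5 reads.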
Regarding UAACAGGGGGCCACAGCAGAGGGGUUCACGUCGCAGCCCCUGUCAGACACUGGUGAAUCUGCGAAUUCUGCUGUAUAUCUC [A21G C23G U48C U49A], the self-cleavage was 0.32.
Take UAACAGGGGGCCACAGCAGAGGCGUUCACGUCGCAGCCCCUGUCUGGUUCUGGUGAAUCAGCGAAUUCUGCUGUAUAUCUC [A21G A45U A47G U60A]: the self-cleavage came to 0.48.
In the case of UAACAGGGGGCCACAGCAGAGGUGUUCACGUCGCGGCCCCCGUCAGAUCCUGGUGAAUCUGCGAAUUCUGCAGUAUAUCCC [A21G C23U A35G U41C U49C U72A U80C], the self-cleavage stood at 0.08.
On to UAACAGGGGGCCACAGCAGAGGCGUUCACGUCGCAGUCCCUGUCAGAUUCCGGUGAAUCUGCGAAUUCUGCUGUAUAACUC [A21G C37U U51C U78A], for which the self-cleavage is 0.55.
On to UAACAGGGGGCCACAGCAGAGGCAUCCACGUCGCAGCCCCUGUCAGAUUCUGGUGAAUCUGCGAAUUCAGCUGUAUAUCCC [A21G G24A U26C U69A U80C], for which the self-cleavage was determined as 0.11.
Take UAACAGGGGGCCACAGCAGAGGCGUUCACGUCGAAGCCCCUGUCAGGUUCUGGUGAAUCUGCGAACUCCGCUGUAUAUCUC [A21G C34A A47G U66C U69C]: the self-cleavage worked out at 0.16.
As to UAACAGGGGGCCACAGCAGAGGCGUUCACGUCGCAGCACCUGUCAGAUUCCGGUGAAUCUGCAAAUUCUGCUGUAUAUCUC [A21G C38A U51C G63A], the self-cleavage was 0.38.
In the case of UAACAGGGGGCCACAGCAGAGGCGUUCACGUCGCAGCCCCUGUCAGAUUCUGGUGAAUCUGCGGAUUCUGCCGUAUACCUC [A21G A64G U72C U78C], the self-cleavage turned out to be 0.55.
To UAACAGGGGGCCACAGCAGAGUCGUUCACGUCGCAGCCCCUGUCAGAUUCUGGUGAAUCUGAGAAUUCCGCUGUAUAUCUC [A21G G22U C62A U69C] belongs 0.04.
Take UAACAGGGGGCCACAGCAGAGGCGUUCACGUCGCAGCCCUUGUCAGAUUCUGGUGAAUCUGCGAAUUCUGCCGUAUAUCUC [A21G C40U U72C]: the self-cleavage was 0.66.
To UAACAGGGGGCCACAGCAGAGGCGUUCACGUCGCAGCCCCUGUCAGAUUCUGGUGACUCUGCGGAUUCAGCUGUAUAUCUC [A21G A57C A64G U69A] belongs 0.34.
Next, UAACAGGGGGCCACAGCAGAGGCGUUCACGUCGCAGCCCCUGUCAGAUUCUGGUGAAUCUGCGAGUUCCGCAGUAUAUCUC [A21G A65G U69C U72A]: 0.06; UAACAGGGGGCCACAGCAGAGGAGUUCACGUCGCGGCCCCUGUCAGAUUCUUGUAAAUCUGCGAAUUCUGCUGUAUAUCUC [A21G C23A A35G G52U G55A]: 0.05.
On to UAACAGGGGGCCACAGCAGAGGUGUUCGCGUCGCAGCCCCUGCCAGAUUCUGGUGAAUCUGCGUAUUCUCCUGUAUAUCUC [A21G C23U A28G U43C A64U G70C], for which the self-cleavage was determined as 0.11.
Next, UAACAGGGGGCCACAGCAGAGGCGUUCACGUCGCAGCCCCUGUCGGAUUCUGGUGAAUCUGCGAAUUCAGCUGUAUAGCUC [A21G A45G U69A U78G]: 0.16; UAACAGGGGGCCACAGCAGAGGCGUUCACGUCGCAGCCCCUGUCUGAAUCUGGUGAAUCUGCGAAUUCUGCUGUAUAUCUC [A21G A45U U48A]: 0.21; UAACAGGGGGCCACAGCAGAGGCGUUCACCUCGCAGCCCCUGUCAGAUUCUGGUGGAUCUGCGAAUUCUGCUGUAUAUCUC [A21G G30C A56G]: 0.2.
Next, UAACAGGGGGCCACAGCAGAGGCAUUCACGUCGCAGCCCCUGACAGAUUCUGGUGAAUCUGCGAAUUCUGCUGUAUAUCCC [A21G G24A U43A U80C]: 0.11; UAACAGGGGGCCACAGCAGAGGCGUUCACGUCGCAGCCCCUGUCGGAUCCUGGUGAAUCCGCGAAUUCUGCUGUAUACCUC [A21G A45G U49C U60C U78C]: 0.13; UAACAGGGGGCCACAGCAGAGGCGUUCACGUCGCAGCCCCUGUCUGAUUCUGGUGAAUCUGCGAAUUCAGCUGUAUAUCUC [A21G A45U U69A]: 0.34.
For UAACAGGGGGCCACAGCAGAGGCGUUCACGUCGCAGCCCUUGUCAGGCUCUGGUGAGUCUGCGAAUUCUGCUGUAUAUCUC [A21G C40U A47G U48C A57G], the self-cleavage was 0.19.
To UAACAGGGGGCCACAGCAGAGGCGUUCACGUCGCAGCCCCUGUCAGAUUCUGGUGAGUCUGCGAUUUCUGCUGAAUAUCUC [A21G A57G A65U U74A] belongs 0.08.
In the case of UAACAGGGGGCCACAGCAGAGGCGUUCACAUCGCAGCCCUUGUCAGAUUCUGGUGAAUCUGCGAAUCCCGCAGUAUAUCUC [A21G G30A C40U U67C U69C U72A], the self-cleavage worked out at 0.04.
Regarding UAACAGGGGGCCACAGCAGAGGCGUUCACGUCGCAGCCCCUGUCAGGUUCCGGUGAAUCUGCGAAUUCGGCCGUAUAUCUC [A21G A47G U51C U69G U72C], the self-cleavage turned out to be 0.1.
To UAACAGGGGGCCACAGCAGAGGCGUUCACGUCGCAGCCCCUGUAAGAUUCUGGUGAAUCUGCGAACUCUGCUGUAUAUCUC [A21G C44A U66C] belongs 0.37; to UAACAGGGGGCCACAGCAGAGGCGUUCACGUCGCAGCCCCUGUCUGAUUCUGGUGCAUCUGCGAAUUCUGCUGUAUAUCUC [A21G A45U A56C], 0.12; to UAACAGGGGGCCACAGCAGAGGCGUUCACGUCACUGCCCCUGUCAGAUUCUGGUGAAUCUGCGAUUUCUGCUGUAUACCUC [A21G G33A A35U A65U U78C], 0.05.
To UAACAGGGGGCCACAGCAGAGCCGUUCACGUCGCAGCCCCUGGCAGAUUCUGGUGAAUCCGCGAAUUCUGCUGUAUAUCUC [A21G G22C U43G U60C] belongs 0.07.
Next, UAACAGGGGGCCACAGCAGAGGCAUUCACGUCGCAGCCCCUGUCAGAUUCUGGUGAAUCUGCGAAUUCUGCUGUAUAUCCC [A21G G24A U80C]: 0.28; UAACAGGGGGCCACAGCAGAGGCGUUCACGUCGCUGCCCCUGUCAGAUUCUGGUGAAUCUGCGAAUUCUGCUGUAAAUCUC [A21G A35U U76A]: 0.17.
Consider UAACAGGGGGCCACAGCAGAGGCGUUCACGUCGCAGCCCCUGUCGGGUUCUGGUGAAUCAGCGAAUUCUGCUGUAUAUCUC [A21G A45G A47G U60A], for which the self-cleavage was determined as 0.17.
Next, UAACAGGGGGCCACAGCAGAGGCGUUCAUGUCGCAGCCCCUGUCAGAUUCUGGUGAAUCUGCGAAUUCUGCUGUAUGUCUC [A21G C29U A77G]: 0.41.
To UAACAGGGGGCCACAGCAGAGGCGUUCACGUCGCAGCCCCUGUCAGAUUCUGGUGGAUCUGCGAUUUCUGCUGUAUAUCUC [A21G A56G A65U] belongs 0.48; to UAACAGGGGGCCACAGCAGAGGCGUUCACGUCGCUGCCCCUGUCAGAUUCUGGUGAAUCUGCGAAUCCUGCUGUAUAUCCC [A21G A35U U67C U80C], 0.08.
